Assay results: ChEMBL document CHEMBL4888484, “Replenishing the malaria drug discovery pipeline: Screening and hit evaluation of the MMV Hit Generation Library 1 (HGL1) against asexual blood stage Plasmodium falciparum ,using a nano luciferase reporter read-out” (2022)
The whole screen tested about 150,000 compounds, of which about 540 (0.36%) showed an effect of 50% or more. This is one part of the list.

test system: Plasmodium falciparum; test: Primary screen in NF54 nanoGlo assay, in single point, at 2uM, 72h; a lower Z score goes with more inhibition; type: functional, Erythrocyte; details: timepoint 72 hour

Row | SMILES | % Inhibition | Z score
1 | Cc1noc2ncnc(N3CC[C@@](O)(C4CCOCC4)[C@H](C)C3)c12 | -3% | 0.47
2 | O=S(=O)(CC1CCCC1)NCCOc1ccccc1F | -10% | 1.07
3 | OCC1CCCN1C[C@H]1CCCO[C@@H]1c1ccc(C(F)(F)F)cc1 (stereo partly drawn) | -18% | 2.43
4 | CC(C)n1cc([C@H]2OCC[C@@H]2NC(=O)Nc2ccc3ccc(=O)n(C)c3c2)cn1 | -15% | 2.24
5 | O=C(O)c1cnc(C=Cc2csc(-c3ccco3)n2)s1 | -8% | 1.25
6 | Cc1ccc2[nH]c3c(=O)n(CC(=O)N4CCN(Cc5ccccc5)CC4)ncc3c2c1 | -4% | 0.64
7 | CC(O)CN1CCN(C(C)C(=O)Nc2ccc(Cl)cn2)CC1C (stereo not drawn) | 6% | -0.83
8 | O=C(CCC(=O)N1CC[C@@H]2OCc3cnnn3[C@@H]2C1)c1ccccc1 | -11% | 2.16
9 | CNC(=O)c1cccc(NC(=O)N[C@H](c2ccccc2)C2CC2)n1 | 29% | -3.23
10 | O=C1CNC(=O)N1CCOc1ccc(F)c(F)c1 | 8% | -1.4
11 | CC(C)=CCN1C(=O)[C@@H]2CC[C@H]1CN(C(=O)c1ccc3c(c1)NC(=O)CN3)C2 | 1% | -0.1
12 | CCCCn1c(C(=O)NCc2ccccc2)cc2cc(NC(=O)C3CCC3)ccc21 | 16% | -2.06
13 | CC1(C)CN(C[C@H]2C[C@@H]2C(=O)O)CC(COc2ccccc2)O1 (stereo partly drawn) | 8% | -1.28
14 | CCCn1nccc1S(=O)(=O)NCCCc1csc(N)n1 | -11% | 1.66
15 | CCCn1nnnc1NCc1ccc2c(c1)OCCO2 | -17% | 1.57
16 | CC(C)NC(=O)N1CC(Oc2ccccc2-c2nc(C3CC3)no2)C1 | -4% | 0.49
17 | Cn1c(-c2c(-c3ccccc3)ncn2CCF)nc2ccccc21 | -10% | 1.23
18 | O=C(COc1ccc(F)cc1)N1CC[C@H](c2nc(CCOCC3CCCC3)no2)C1 | -9% | 1.04
19 | CCc1ccc(CCCC(=O)N2C[C@H]3COCC[C@@]3(O)[C@@H]3COCC[C@@H]32)cc1 | 5% | -0.53
20 | O=C(CN1C[C@H]2C[C@H](C1)[C@H]1CCCC(=O)N1C2)NCc1ccccc1 | -5% | 0.97
21 | CCOCC(=O)N1CCc2ncnc(N3CCC4(CCCC4)C3)c2CC1 | -15% | 1.47
22 | CCCC(CCC)NC(=O)c1cncn1-c1cccc(-c2cccc(Cl)c2)c1 | 9% | -1.14
23 | O=C(NCc1cc[nH]n1)[C@@H]1COCC(=O)N1Cc1ccccc1 | -3% | 0.59
24 | COc1cccc(C(=O)N(C(=O)c2cccc(OC)c2)c2ncccc2C)c1 | -11% | 1.4
25 | CCN(C)C(=O)Nc1nnc(C2CC2)s1 | -8% | 1.24
26 | Cc1nc(C)n(-c2ccc(C(=O)N3CC4(CCC4)c4c(F)cccc43)cc2)n1 | -17% | 2.25
27 | CN(CC(=O)N(C1CCCC1)[C@H]1CCS(=O)(=O)C1)Cc1nccn1C | 19% | -2.22

Row | SMILES | % Inhibition | Z score
28 | CCC(C(=O)O)N1CCCC(c2nc(C(F)(F)F)cs2)C1 (stereo not drawn) | -14% | 1.37
29 | Cc1nc(C(=O)NCCCOC(C)C)c(C)s1 | -13% | 1.26
30 | O=C(Nc1ccc2c(c1)C(=O)N(C[C@H]1CCCO1)C2=O)c1cccs1 | 4% | -0.47
31 | Cc1cc(CS(=O)(=O)N2CCC[C@H]2c2noc(C)n2)no1 | 32% | -0.6
32 | O=C(Nc1cccnc1)NC1C2CCC(C2)C1CO (stereo not drawn) | -11% | 1.5
33 | O=C1[C@@H]2CCCN2C(=O)N1C1CCN(c2ccccn2)C1 (stereo partly drawn) | -11% | 1.65
34 | O=C(c1cn(CC2CC2)nn1)N1C[C@@H]2CCCN2Cc2ccccc21 | -2% | 0.32
35 | Cc1ccc([C@H](C)N(C)c2ncnc3ccsc23)s1 | -1% | 0.17
36 | CC[C@H](C)N(Cc1cc(NC(=O)NC(C)C)ccc1N(C)C)C(=O)CC(C)(C)C | 3% | -0.39
37 | Cc1nc(C)c(-c2cc(C(=O)NC3CCCCCC3)[nH]n2)s1 | -4% | 0.55
38 | CCN(CC(=O)Nc1ccc2c(c1)OCCO2)CC(=O)N1CCc2ccccc2C1 | -4% | 0.62
39 | O=C(Cc1c(F)cccc1Cl)Nc1cccc(C(=O)NC2CC2)c1 | 10% | -1.14
40 | CC(C)CN(CCC(=O)Nc1ccccc1C#N)C(C)C | -8% | 1.2
41 | CCOC[C@H]1CCCN1C(=O)C1(N2CCCCC2)CCCCC1 | -6% | 1.1
42 | C[C@H](OC(=O)c1ccc2c(c1)OCCCO2)c1nc2ccccc2o1 | -7% | 0.78
43 | C[C@H]1CCc2nc(O)c(C(=O)N3CCN(C)CC3)cc2C1 | -1% | 0.17
44 | CCN(C(=O)Nc1ccc(C(F)(F)F)cc1)[C@H]1COC[C@@H]1O | -7% | 1.18
45 | COCCNc1ccc(CNC(=O)N2CC[C@@H](C)O[C@@H](C)C2)cc1 | -9% | 1.42
46 | CCn1cc(Br)cc1C(=O)N1CCCN2CCC[C@H]2C1 | -4% | 0.46
47 | Cc1nnsc1C(=O)NC1CCCC(OC(=O)Nc2ccc(F)cc2)C1 (stereo not drawn) | 10% | -1.63
48 | CCCN(CC#N)C(=O)c1cc(F)c(Cl)cc1Cl | -10% | 1.25
49 | COc1ccc(Cc2nnc(C)o2)cc1Cl | -5% | 0.73
50 | Cc1ccc(C)c(-c2n[nH]cc2CN[C@H]2CCCN(c3ncccn3)C2)c1 | -11% | 1.21
51 | O=C(COc1ccc(F)cc1)N1CC[C@H](OCCCc2ccccc2)C1 | -13% | 1.88
52 | Cc1nn(CC(=O)N2C[C@H](C)[C@@](O)(C3CC3)C2)cc1Cl | -4% | 0.49
53 | CC(=O)N[C@@H](C)c1nc(-c2cccnn2)no1 | -3% | 0.36
54 | COC1CC(N(C)C(=O)NC2CC(C)n3ccnc32)C12CCC2 (stereo not drawn) | 33% | -3.7
